{"source": "the supplement of paper PMC4604168 (melanoma cell lines)", "note": "The other results are listed elsewhere or left out. Single values are uncertain, as repeats are few or missing.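 Further: cells treated in 1,536-well plates, then fixed and DAPI-stained, with nuclei counted from automated high-throughput microscope images.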", "data": [{"tested_on": "LOXIMVI", "assay": "cell count relative to DMSO control; melanoma cells; higher = more viable cells", "settings": "library dose: standard library concentration; 72 h", "units": {"cell count": "%"}, "values": [{"smiles": "CN1CCN(c2ccc3nc(-c4c(N)c5c(F)cccc5[nH]c4=O)[nH]c3c2)CC1", "note": "[Dovitinib] + COc1cc2ncnc(Nc3ccc(Oc4ccccc4)cc3)c2cc1OC [SrcI1] (first compound 0.5 µM, partner dose 10 µM)", "cell count": 55.6}, {"smiles": "CNC(=O)c1cc(Oc2ccc(NC(=O)Nc3ccc(Cl)c(C(F)(F)F)c3)cc2)ccn1", "note": "[sorafenib] + COc1cc2ncnc(Nc3ccc(Oc4ccccc4)cc3)c2cc1OC [SrcI1] (first compound 2 µM, partner dose 10 µM)", "cell count": 94.9}, {"smiles": "CS(=O)(=O)CCNCc1ccc(-c2ccc3ncnc(Nc4ccc(OCc5cccc(F)c5)c(Cl)c4)c3c2)o1", "note": "[lapatinib] + COc1ccc(COc2ccc(Cc3cnc(N)nc3N)cc2OC)cc1 [GW2580] (first compound 4 µM, partner dose 5 µM)", "cell count": 96.1}, {"smiles": "CN1CCN(c2ccc3nc(-c4c(N)c5c(F)cccc5[nH]c4=O)[nH]c3c2)CC1", "note": "[Dovitinib] + COc1ccc(COc2ccc(Cc3cnc(N)nc3N)cc2OC)cc1 [GW2580] (first compound 0.5 µM, partner dose 5 µM)", "cell count": 93.7}, {"smiles": "C[C@@H](Oc1cc(-c2cnn(C3CCNCC3)c2)cnc1N)c1c(Cl)ccc(F)c1Cl", "note": "[Crizotinib] + c1cc(-c2cnn3cc(-c4ccc(OCCN5CCCCC5)cc4)cnc23)ccn1 [Dorsomorphin] (first compound 1 µM, partner dose 2 µM)", "cell count": 86.2}, {"smiles": "C=CCNC1=C2C[C@@H](C)C[C@H](OC)[C@H](O)[C@@H](C)/C=C(\\C)[C@H](OC(N)=O)[C@@H](OC)/C=C\\C=C(/C)C(=O)NC(=CC1=O)C2=O", "note": "[Tanespimycin] + Cc1cc([N+](=O)[O-])ccc1NS(=O)(=O)c1cc(Cl)ccc1Cl [FH535] (first compound 0.01 µM, partner dose 5 µM)", "cell count": 83.8}, {"smiles": "C=CCNC1=C2C[C@@H](C)C[C@H](OC)[C@H](O)[C@@H](C)/C=C(\\C)[C@H](OC(N)=O)[C@@H](OC)/C=C\\C=C(/C)C(=O)NC(=CC1=O)C2=O", "note": "[Tanespimycin] + C[C@]1(c2nc3c(C(N)=O)cccc3[nH]2)CCCN1 [Veliparib] (first compound 0.01 µM, partner dose 7 µM)", "cell count": 162}]}]}
